Reference: the supplement of paper PMC3334620
Whole data set: some 33,000 sequences, median “E-score (-0.5 to 0.5)” near -0.035, cut for the highest 2% near 0.35. Some of the results follow.

These sequences were tested against T1, Pdr3 (UniProt P33200) (assay: PBM E-score (8-mer binding enrichment) (E-score (-0.5 to 0.5)); higher = stronger / more preferred TF binding; most listed sequences are background and not binding sites). Details: protein concentration: 200 nM; construct: GST-full length.
T1 sequence: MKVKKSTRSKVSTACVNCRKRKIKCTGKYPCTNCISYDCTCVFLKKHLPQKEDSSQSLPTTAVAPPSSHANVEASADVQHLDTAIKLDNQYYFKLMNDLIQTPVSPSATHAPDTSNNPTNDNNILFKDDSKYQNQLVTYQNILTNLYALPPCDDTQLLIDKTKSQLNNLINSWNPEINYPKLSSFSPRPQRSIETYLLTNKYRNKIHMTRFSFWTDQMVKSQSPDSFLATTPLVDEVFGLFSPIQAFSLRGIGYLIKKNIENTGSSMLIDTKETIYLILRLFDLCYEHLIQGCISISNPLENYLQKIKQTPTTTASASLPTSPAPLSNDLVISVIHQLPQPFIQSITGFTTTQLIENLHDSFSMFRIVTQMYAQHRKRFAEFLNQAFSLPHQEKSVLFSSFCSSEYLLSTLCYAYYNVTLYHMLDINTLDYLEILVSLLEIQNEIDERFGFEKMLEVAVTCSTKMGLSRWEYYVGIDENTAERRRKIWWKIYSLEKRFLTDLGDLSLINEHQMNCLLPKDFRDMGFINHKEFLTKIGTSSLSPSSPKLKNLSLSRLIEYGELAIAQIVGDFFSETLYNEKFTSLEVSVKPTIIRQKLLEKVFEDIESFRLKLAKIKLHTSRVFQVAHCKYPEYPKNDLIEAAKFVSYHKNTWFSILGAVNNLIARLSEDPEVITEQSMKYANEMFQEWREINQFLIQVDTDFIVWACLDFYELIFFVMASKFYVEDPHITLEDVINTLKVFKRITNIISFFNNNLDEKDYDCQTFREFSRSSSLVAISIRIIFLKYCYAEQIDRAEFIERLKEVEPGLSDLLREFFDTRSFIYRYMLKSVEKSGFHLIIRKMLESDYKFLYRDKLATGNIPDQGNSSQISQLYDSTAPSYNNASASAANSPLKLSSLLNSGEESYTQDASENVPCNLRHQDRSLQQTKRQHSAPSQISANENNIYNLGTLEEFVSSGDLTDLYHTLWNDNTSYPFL
Summary of the method: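 Each ungapped eight-base word and its reverse complement, pooled, received an E-score from the Universal PBM Analysis Suite. Underlying scans, normalised with masliner, recorded fluorescent anti-GST bound to GST-tagged yeast transcription factors. These were applied at about 100-200 nM to universal all-10-mer Agilent arrays double-stranded by primer extension.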

| Sequence | PBM E-score |
| --- | --- |
| CGCTAAAC | -0.0316 |
| CAGTAAGC | -0.187 |
| ATGCCCAG | 0.0614 |
| CGGGCATC | 0.0745 |
| GATAATAA | 0.0825 |
| CGGAAGTA | 0.393 |
| CCCCACCG | 0.172 |
| GATATTGC | 0.0722 |
| ATAGTTGG | -0.175 |
| AGTCCGAA | 0.143 |
| CCCAAGGG | -0.254 |
| ACCGGGAC | 0.318 |
| GTGACGAA | -0.0359 |
| AATAAGAG | 0.0338 |
| AGGAGTAC | -0.272 |
| AATTTTAT | 0.208 |
| CACCATTC | -0.0951 |
| ACCAATGA | -0.223 |
| ATTCAAAC | 0.012 |
| ACGGGAGA | 0.0307 |
| ACAGGTTA | -0.249 |
| CCCAACCA | 0.093 |
| AGTAGTCG | -0.123 |
| TGCGTAAA | -0.163 |
| TATGCTCA | 0.0839 |

| Sequence | PBM E-score |
| --- | --- |
| ATGTCCAA | 0.0494 |
| CCTTGCAA | -0.191 |
| GCTGTGAA | -0.19 |
| AGAGCAGC | -0.115 |
| TCCATTCA | 0.0142 |
| CAACTCGG | 0.116 |
| GACTGACC | -0.366 |
| ACCCACAA | 0.0366 |
| CAAGTTTC | -0.0413 |
| ACCATGCT | -0.00407 |
| CTAGCTGC | -0.197 |
| GACCAATA | -0.0553 |
| AGTGCCAT | -0.255 |
| GCACTAGC | -0.0738 |
| CCGCCCTC | 0.212 |
| GGCTGCTA | -0.0805 |
| CCGTCGGA | 0.361 |
| ATCGGCCA | 0.0858 |
| ACCAGCCA | 0.0157 |
| CACGTACC | -0.16 |
| GACGACGC | 0.00312 |
| CGTGTCAC | 0.0629 |
| CCTTATTA | -0.176 |
| AAGGCATT | -0.117 |
| AAAGGTGT | 0.086 |

| Sequence | PBM E-score |
| --- | --- |
| CAGGACTC | -0.198 |
| CCCCAGAG | -0.182 |
| ACCCACTC | 0.0407 |
| AATTGACT | -0.00788 |
| AGCGGTCG | -0.271 |
| AAACTTGC | -0.0125 |
| ATGTTCTA | -0.102 |
| ACCTCCCA | -0.244 |
| ATACGTCA | -0.00777 |
| CGATGGTC | -0.034 |
| CAGCAACA | 0.0154 |
| ATCAATCG | 0.0277 |
| AGGCACCC | -0.246 |
| CCGGGCAC | 0.364 |
| GAAGTCAC | -0.0349 |
| CTCTCAAG | -0.108 |
| ATTGTGCA | -0.0815 |
| ATCGACTG | 0.0265 |
| TATTTACA | -0.097 |
| CTCCCCCC | -0.136 |
| AGCTCTTC | 0.0701 |
| ATTCGGAG | 0.2 |
| CCTTGTAG | -0.149 |
| CATAATGA | -0.125 |
| GGGCCCGA | 0.269 |

| Sequence | PBM E-score |
| --- | --- |
| CCTGCTTC | -0.0723 |
| CATATGCA | -0.0934 |
| GGAAGGCC | 0.00722 |
| GTGCAAAC | -0.0815 |
| ACCCAAAG | -0.146 |
| GTGTAGCA | -0.244 |
| CGGGAGCC | 0.169 |
| CCTGTCCG | 0.138 |
| AAGGCAGC | -0.0731 |
| ACATATTG | -0.137 |
| CACCCGGG | 0.398 |
| CCAGAAAG | 0.0367 |
| CGTCAACA | 0.0257 |
| AGCTTAGA | -0.115 |
| AGGTGATA | -0.0755 |
| CAAGAGTG | -0.149 |
| TACGAAGA | -0.188 |
| AGCTTACT | -0.113 |
| ATGCCGTC | 0.225 |
| GCTTAATA | -0.125 |
| AAACGGGC | 0.113 |
| TCACTCAA | -0.186 |
| GCTTACCC | -0.197 |
| ATATTTCG | 0.147 |
| AAGTATGC | -0.214 |

| Sequence | PBM E-score |
| --- | --- |
| ATTCGTTG | 0.207 |
| GATGGGAC | 0.13 |
| GATGTAAC | 0.0399 |
| ATGGTCTG | -0.0441 |
| CATTCGAA | -0.136 |
| GAATGAAA | 0.102 |
| CTTATAAG | 0.135 |
| ACTAGATG | -0.118 |
| CGGTGTCA | -0.0513 |
| TCCGACAA | 0.233 |
| CCTGCCAC | -0.114 |
| CTTTTCGC | 0.138 |
| TCAAAACA | -0.0553 |
| AATTTGTC | -0.134 |
| ATGCTCTA | -0.211 |
| TATAAGAA | 0.029 |
| CGGGTGAG | 0.201 |
| CAACTCCG | 0.277 |
| AGCTAAGC | -0.132 |
| ATCCGCAA | 0.222 |
| AACGTAGA | 0.12 |
| CTCTTGCC | -0.056 |
| AACACTCC | 0.182 |
| AAAGCTCC | 0.109 |
| AACGGGTG | 0.226 |

| Sequence | PBM E-score |
| --- | --- |
| CCCCGGCG | 0.162 |
| ACCCGCTG | 0.126 |
| CTCCGACC | 0.174 |
| ATAGGCTC | -0.151 |
| CCAAGAGC | -0.159 |
| CCGAAACG | 0.168 |
| CCGGGAGA | 0.369 |
| CCCCAGTA | -0.0517 |
| GTCTTAAC | -0.273 |
| CAATTTAC | -0.0856 |
| GATATGCC | 0.103 |
| CGAGAACA | -0.00392 |
| CCGTGGTC | 0.113 |
| GGAAGCCA | 0.0692 |
| CCGCACCA | 0.169 |
| CCGAGCAA | 0.209 |
| CAGATAGA | -0.115 |
| CGTAGTGC | -0.138 |
| GACGACTA | -0.203 |
| ACACTATC | -0.0702 |
| TCACACCA | -0.13 |
| CCTCTCCA | -0.341 |
| CAGAATGC | 0.0462 |
| AGCCGGTC | -0.0317 |
| GATCCACA | 0.0247 |

| Sequence | PBM E-score |
| --- | --- |
| AAATTCCG | 0.418 |
| TGCCGGAA | 0.454 |
| GCTGTTTA | 0.0507 |
| TAAACTAA | 0.0834 |
| CGAAGAAA | 0.182 |
| AGTGATCC | -0.0637 |
| CGTCTTCA | -0.00054 |
| ACGGGTGA | 0.172 |
| GCCCACGC | -0.139 |
| CATAATTC | 0.0534 |
| ACGAGTCA | -0.323 |
| AAATGTAC | -0.0787 |
| CGTTCCAG | -0.139 |
| TACAGAGA | -0.169 |
| ATCTCGGC | 0.325 |
| GCCCATTA | -0.114 |
| CAAAAAAC | -0.0172 |
| GACAAACC | -0.0403 |
| ACAATAAG | -0.0602 |
| GCAACTGC | -0.0425 |
| CCAGAGAA | -0.141 |
| ACTTGGGG | 0.0103 |
